The text below walks through data of paper PMC9911399, “Two distinct binding modes provide the RNA-binding protein RbFox with extraordinary sequence specificity”.

Sequences and labels used below:
T1: RBFOX1 RRM RbFoxmut (Fox-RRM*) (Homo sapiens, UniProt Q9NWB1 109-208, R118D;E147R;N151S;E152T)
T1 sequence: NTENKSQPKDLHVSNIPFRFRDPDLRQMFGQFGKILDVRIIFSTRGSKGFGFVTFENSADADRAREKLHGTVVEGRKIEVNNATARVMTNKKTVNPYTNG

B1: ACUAUGG (DNA:RNA)
RNA: GGGAGACCGGAAUUCAGAUUGUCCACUAUGGUUAAAUCCCGUCGUAGCCACCA
DNA 1: CAATCTGAATTCCGGTCTCCC
DNA 2: TGGTGGCTACGACGGGATT
B2: UUGACCG (DNA:RNA)
RNA: B1 RNA with A25U, C26U, U27G, U29C, G30C
DNA 1: CAATCTGAATTCCGGTCTCCC
DNA 2: TGGTGGCTACGACGGGATT
B3: GACAAGC (DNA:RNA)
RNA: B1 RNA with A25G, C26A, U27C, U29A, G31C
DNA 1: CAATCTGAATTCCGGTCTCCC
DNA 2: TGGTGGCTACGACGGGATT
B4: UAGAUAC (DNA:RNA)
RNA: B1 RNA with A25U, C26A, U27G, G30A, G31C
DNA 1: CAATCTGAATTCCGGTCTCCC
DNA 2: TGGTGGCTACGACGGGATT
B5: AUUUUUG (DNA:RNA)
RNA: B1 RNA with C26U, A28U, G30U
DNA 1: CAATCTGAATTCCGGTCTCCC
DNA 2: TGGTGGCTACGACGGGATT
B6: GAGCAUU (DNA:RNA)
RNA: GGGAGACCGGAAUUCAGAUUGUCCGAGCAUUUUAAAUCCCGUCGUAGCCACCA
DNA 1: CAATCTGAATTCCGGTCTCCC
DNA 2: TGGTGGCTACGACGGGATT
B7: CGGACGA (DNA:RNA)
RNA: B1 RNA with A25C, C26G, U27G, U29C, G31A
DNA 1: CAATCTGAATTCCGGTCTCCC
DNA 2: TGGTGGCTACGACGGGATT
B8: GCAAUCU (DNA:RNA)
RNA: B1 RNA with A25G, U27A, G30C, G31U
DNA 1: CAATCTGAATTCCGGTCTCCC
DNA 2: TGGTGGCTACGACGGGATT
B9: UCCUGAU (DNA:RNA)
RNA: B1 RNA with A25U, U27C, A28U, U29G, G30A, G31U
DNA 1: CAATCTGAATTCCGGTCTCCC
DNA 2: TGGTGGCTACGACGGGATT
B10: UAAGCGU (DNA:RNA)
RNA: B6 RNA with G25U, G27A, C28G, A29C, U30G
DNA 1: CAATCTGAATTCCGGTCTCCC
DNA 2: TGGTGGCTACGACGGGATT
B11: UCCGCCU (DNA:RNA)
RNA: B1 RNA with A25U, U27C, A28G, U29C, G30C, G31U
DNA 1: CAATCTGAATTCCGGTCTCCC
DNA 2: TGGTGGCTACGACGGGATT
B12: GCUCGAA (DNA:RNA)
RNA: B1 RNA with A25G, A28C, U29G, G30A, G31A
DNA 1: CAATCTGAATTCCGGTCTCCC
DNA 2: TGGTGGCTACGACGGGATT
B13: UCUUGGG (DNA:RNA)
RNA: B1 RNA with A25U, A28U, U29G
DNA 1: CAATCTGAATTCCGGTCTCCC
DNA 2: TGGTGGCTACGACGGGATT
B14: CGGGGCA (DNA:RNA)
RNA: B6 RNA with G25C, A26G, C28G, A29G, U30C, U31A
DNA 1: CAATCTGAATTCCGGTCTCCC
DNA 2: TGGTGGCTACGACGGGATT
B15: AUGGAGA (DNA:RNA)
RNA: B1 RNA with C26U, U27G, A28G, U29A, G31A
DNA 1: CAATCTGAATTCCGGTCTCCC
DNA 2: TGGTGGCTACGACGGGATT
B16: AAGGACC (DNA:RNA)
RNA: B6 RNA with G25A, C28G, U30C, U31C
DNA 1: CAATCTGAATTCCGGTCTCCC
DNA 2: TGGTGGCTACGACGGGATT
B17: GCUCGUU (DNA:RNA)
RNA: B6 RNA with A26C, G27U, A29G
DNA 1: CAATCTGAATTCCGGTCTCCC
DNA 2: TGGTGGCTACGACGGGATT
B18: GUUAGUC (DNA:RNA)
RNA: B1 RNA with A25G, C26U, U29G, G30U, G31C
DNA 1: CAATCTGAATTCCGGTCTCCC
DNA 2: TGGTGGCTACGACGGGATT
B19: ACACAUA (DNA:RNA)
RNA: B6 RNA with G25A, A26C, G27A, U31A
DNA 1: CAATCTGAATTCCGGTCTCCC
DNA 2: TGGTGGCTACGACGGGATT
B20: CGCCUUG (DNA:RNA)
RNA: B1 RNA with A25C, C26G, U27C, A28C, G30U
DNA 1: CAATCTGAATTCCGGTCTCCC
DNA 2: TGGTGGCTACGACGGGATT
B21: GAGCGUC (DNA:RNA)
RNA: B6 RNA with A29G, U31C
DNA 1: CAATCTGAATTCCGGTCTCCC
DNA 2: TGGTGGCTACGACGGGATT
B22: GAAAUAG (DNA:RNA)
RNA: B1 RNA with A25G, C26A, U27A, G30A
DNA 1: CAATCTGAATTCCGGTCTCCC
DNA 2: TGGTGGCTACGACGGGATT
B23: CAUCCGG (DNA:RNA)
RNA: B1 RNA with A25C, C26A, A28C, U29C
DNA 1: CAATCTGAATTCCGGTCTCCC
DNA 2: TGGTGGCTACGACGGGATT
B24: ACCAGUC (DNA:RNA)
RNA: B1 RNA with U27C, U29G, G30U, G31C
DNA 1: CAATCTGAATTCCGGTCTCCC
DNA 2: TGGTGGCTACGACGGGATT
B25: UCGUCGA (DNA:RNA)
RNA: B1 RNA with A25U, U27G, A28U, U29C, G31A
DNA 1: CAATCTGAATTCCGGTCTCCC
DNA 2: TGGTGGCTACGACGGGATT
B26: UGGAUAC (DNA:RNA)
RNA: B1 RNA with A25U, C26G, U27G, G30A, G31C
DNA 1: CAATCTGAATTCCGGTCTCCC
DNA 2: TGGTGGCTACGACGGGATT
B27: AUUUUCG (DNA:RNA)
RNA: B1 RNA with C26U, A28U, G30C
DNA 1: CAATCTGAATTCCGGTCTCCC
DNA 2: TGGTGGCTACGACGGGATT
B28: CAUAUGC (DNA:RNA)
RNA: B1 RNA with A25C, C26A, G31C
DNA 1: CAATCTGAATTCCGGTCTCCC
DNA 2: TGGTGGCTACGACGGGATT
B29: GGUUCUA (DNA:RNA)
RNA: B6 RNA with A26G, G27U, C28U, A29C, U31A
DNA 1: CAATCTGAATTCCGGTCTCCC
DNA 2: TGGTGGCTACGACGGGATT
B30: GCUUCUU (DNA:RNA)
RNA: B6 RNA with A26C, G27U, C28U, A29C
DNA 1: CAATCTGAATTCCGGTCTCCC
DNA 2: TGGTGGCTACGACGGGATT
B31: UGGAUAU (DNA:RNA)
RNA: B1 RNA with A25U, C26G, U27G, G30A, G31U
DNA 1: CAATCTGAATTCCGGTCTCCC
DNA 2: TGGTGGCTACGACGGGATT

Residue numbers refer to the chain shown, from its start. Some of the results follow.

For the experiment, the target named is T1, RBFOX1 RRM RbFoxmut (Fox-RRM*). Description: EMSA; HiTS-Eq, 1 nM pool, 10 min; buffer printed only for the single-RNA assays: 10 mM Tris pH 7.5, 150 mM NaCl, 3.4 mM EDTA, 0.001% NP-40, 30 C. The following applies: tags: His6 N-terminal (pET28a); label: 5' 32P. The method in brief: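 Purified RbFox RRM, wild type or mutant, was incubated for 10 min in 50 µL with 1 nM of a 5′-radiolabelled RNA pool carrying 7 randomized nucleotides, whose flanks were annealed to DNA oligonucleotides, over a series of increasing protein concentrations. Unbound RNA was resolved on 8% native PAGE, cut out, reverse-transcribed, barcoded by PCR and sequenced on an Illumina HiSeq 2500. Relative association constants were derived from changes in read counts for each RNA species versus the control reaction and normalised to the cognate motif.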
A general note: A gel shift assay detects complexes by their altered migration in electrophoresis.
In the case of B1, the binding signal was 0.0736 KA relative to UGCAUGU.

Turning to B2, the binding signal is 0.14 KA relative to UGCAUGU.

For B3, the binding signal was 0.0177 KA relative to UGCAUGU.

Regarding B4, the binding signal is 0.0415 KA relative to UGCAUGU.

On to B5, for which the binding signal was 0.111 KA relative to UGCAUGU.

In the case of B6, the binding signal is 0.0833 KA relative to UGCAUGU.

As to B7, the binding signal is 0.0738 KA relative to UGCAUGU.

On to B8, for which the binding signal is 0.05 KA relative to UGCAUGU.

B9: the binding signal is 0.0975 KA relative to UGCAUGU.

Take B10: the binding signal is 0.104 KA relative to UGCAUGU.

For the molecule B11, the binding signal was 0.0654 KA relative to UGCAUGU.

Turning to B12, the binding signal was 0.0903 KA relative to UGCAUGU.

On to B13, for which the binding signal was 0.0726 KA relative to UGCAUGU.

On to B14, for which the binding signal was 0.121 KA relative to UGCAUGU.

Regarding B15, the binding signal is 0.139 KA relative to UGCAUGU.

Consider B16, for which the binding signal is 0.0638 KA relative to UGCAUGU.

Regarding B17, the binding signal was 0.114 KA relative to UGCAUGU.

For B18, the binding signal is 0.0924 KA relative to UGCAUGU.

For the molecule B19, the binding signal is 0.0808 KA relative to UGCAUGU.

Regarding B20, the binding signal is 0.978 KA relative to UGCAUGU.

For B21, the binding signal was 0.103 KA relative to UGCAUGU.

Turning to B22, the binding signal is 0.109 KA relative to UGCAUGU.

As to B23, the binding signal was 0.0542 KA relative to UGCAUGU.

Turning to B24, the binding signal was 0.063 KA relative to UGCAUGU.

With B25, the binding signal was 0.0887 KA relative to UGCAUGU.

For B26, the binding signal was 0.0859 KA relative to UGCAUGU.

With B27, the binding signal was 0.0844 KA relative to UGCAUGU.

Regarding B28, the binding signal was 0.132 KA relative to UGCAUGU.

Consider B29, for which the binding signal was 0.107 KA relative to UGCAUGU.

Take B30: the binding signal was 0.0703 KA relative to UGCAUGU.

Turning to B31, the binding signal was 0.122 KA relative to UGCAUGU.
